Results published in PubChem BioAssay AID1347071 (National Center for Advancing Translational Sciences (NCATS), 2019).
Out of some 410,000 compounds screened, about 260 (0.063%) were called active. This list was built around the results that the source calls inconclusive (neither active nor inactive); the mix of calls is not that of the screen. The call rests on the fitted dose curve; in most records, active means well fitted activation curve with a large enough effect; inconclusive means small, poorly fitted or top-dose-only effect; inactive means no such curve, though single readings can be large or run the other way. Potencies of inconclusive entries are left out as doubtful fits.
Potency means the concentration at half of the fitted maximal effect; tags describe the fitted curve by direction and shape.

Assay: qHTS for compounds that reverse cellular toxicity of Amyloid beta (A-beta) peptide in yeast: Primary Screen; further: nearly all actives have a fitted effect of over 55% in size
Settings: yeast expressing A-beta42, growth rescue, OD600, 48 h; growth rescue: at 46.1 µM (top of the series), 0% DMSO, 100% iron-clioquinol control
Method in brief: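 Growth rescue measured by 600 nm absorbance after 48 h yeast culture at 30 C with compound. Values normalized between DMSO and an equimolar ferric chloride plus clioquinol control.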
With `O=C(NCc1ccccc1)C(c1cccc2ccccc12)n1c(=O)c(-c2cc3ccccc3[nH]2)nc2ccccc21` (stereo unspecified) the Potency was inconclusive [activator, full curve].
For `COc1ccc(NC(=O)CSc2nnc(NC(=O)NC3CCCCC3)s2)cc1OC`, the “growth rescue” value was inactive: -1.7%.
With `Cc1[nH]c2ccccc2c1SCC(=O)N1CCCCC1` the Potency was inconclusive [activator, single point].
With `C=CCNC(=S)N(Cc1ccccc1)Cc1ccccc1` the Potency was inconclusive [activator, single point].
In the case of `CCOC(=O)CNC(=S)N(Cc1ccco1)Cc1ccccc1Cl`, the Potency is reported as inconclusive [activator, partial curve, poor fit].
With `Cc1ccc(Nc2nc(N)c([N+](=O)[O-])c(N3CCOCC3)n2)cc1C` the Potency was inconclusive [activator, partial curve].
With `COc1ccc(N2CCN(C(=O)C3CC(O)CN3S(=O)(=O)c3ccc([N+](=O)[O-])cc3)CC2)cc1` (stereo unspecified) the Potency was inconclusive [activator, single point].
With `CC(C)C(C)(C#N)NC(=O)CSc1nncn1-c1ccccc1` (stereo unspecified) the Potency was inconclusive [activator, full curve, poor fit].
For `Cc1ccccc1NC(=O)C1CCC(=O)N1` (stereo unspecified), the Potency was inconclusive [activator, full curve].
In the case of `COC(=O)c1cc2oc3ccccc3c2n1CC(=O)Nc1cc(OC)cc(OC)c1`, the “growth rescue” value is reported as inactive: -19.9%.
With `CC(C)c1ccc(Nc2ncc3c(n2)CCN(C(=O)Nc2ccc(F)c(Cl)c2)C3)cc1` the Potency was inconclusive [activator, single point].
In the case of `O=S(=O)(NCc1csc(-c2cccnc2)n1)c1ccc2c(c1)OCCO2`, the “growth rescue” value is reported as inactive: 8.68%.
In the case of `FC(F)(F)c1ccccc1NC(=S)NN=C1CCCCCC1`, the Potency is reported as inconclusive [activator, single point].
With `O=C1CCCCCN1Sc1ccccc1` the Potency was inconclusive [activator, full curve, poor fit].
In the case of `CCOC(=O)[C@]12CCC=C1N(Cc1ccc(Cl)cc1Cl)C(=O)[C@H](CC(=O)N1CCCC1)C2`, the Potency is reported as inconclusive [activator, partial curve, poor fit].
With `CC(=O)c1cccc(N(C(=O)Cn2nnc3ccccc32)C(C(=O)NCc2ccccc2)c2ccc(F)cc2)c1` (stereo unspecified) the “growth rescue” value was inactive: -17%.
In the case of `O=C(NC1CCCc2ccccc21)C1CCN(c2nnc(-n3cccc3)s2)CC1` (stereo unspecified), the Potency is reported as inconclusive [activator, single point].
In the case of `Cc1cc(OCC(=O)Nc2ccccc2N2CCCCC2)ccc1C(C)C`, the Potency is reported as inconclusive [activator, partial curve, poor fit].
With `N#C/C(=C\c1ccc(O)c(O)c1)C(=O)c1ccc(O)c(O)c1` the “growth rescue” value was inactive: -3.9%.
In the case of `CSc1ccc(/C=N/n2c(C3CCCCC3)n[nH]c2=S)cc1`, the Potency is reported as inconclusive [activator, single point].
With `CCn1c(=O)c2c(n3c(=S)[nH]nc13)-c1ccccc1CC21CCCCC1` the Potency was inconclusive [activator, partial curve, poor fit].
For `COC(=O)C1CN(C(=O)COc2ccc(Cl)c(C)c2)c2ccccc2O1` (stereo unspecified), the Potency was inconclusive [activator, partial curve, poor fit].
In the case of `COc1cc(OC)cc(C(=O)Nc2nnc(-c3cccnc3)o2)c1`, the Potency is reported as inconclusive [activator, full curve, poor fit].
For `COc1ccc(-n2c(=O)c3ccc(C(=O)NCc4ccc(C)cc4)cc3n(CC(=O)Nc3cccc(F)c3)c2=O)cc1`, the “growth rescue” value was inactive: -8.81%.
For `S=C1NC2(CCCC2)Nc2ccccc21`, the Potency was inconclusive [activator, partial curve, poor fit].
With `COc1ccc(Cl)cc1NC(=O)C(OC)c1ccccc1` (stereo unspecified) the Potency was inconclusive [activator, single point].
For `COc1ccc(N(C(=O)CCC(=O)Nc2cc(C)on2)C(C(=O)NC2CCCC2)c2ccco2)cc1` (stereo unspecified), the “growth rescue” value was inactive: 10.1%.
For `Cc1ccccc1NC(C)C(=O)N/N=C/c1ccccc1OCc1cccc(Br)c1` (stereo unspecified), the Potency was inconclusive [activator, partial curve, poor fit].
With `Cc1ccccc1NC(=S)N(Cc1ccco1)C(C)c1cccs1` (stereo unspecified) the Potency was inconclusive [activator, single point].
For `Cc1cccc(-c2nc3cc(NC(=O)c4ccc(OCC(C)C)cc4)ccc3o2)c1`, the “growth rescue” value was inactive: -7.24%.
In the case of `Cc1cc(C)c(O)c(NC(=S)NC(=O)Cc2ccccc2)c1`, the Potency is reported as inconclusive [activator, partial curve].
With `COC(=O)c1ccccc1NC(=S)NC(NC(=O)c1ccco1)C(Cl)(Cl)Cl` (stereo unspecified) the Potency was inconclusive [activator, full curve, poor fit].
For `CCNC(=S)N/N=C/c1cc(C)ccc1C`, the Potency was active: 4.47 µM.
For `CCc1ccc(CN(Cc2ccco2)c2cnc(S(C)(=O)=O)nc2C(=O)Nc2ccc(C)c(Cl)c2)cc1`, the “growth rescue” value was inactive: 1.69%.
In the case of `O=C(Nc1cc(Cl)cc(Cl)c1)c1ccc(F)c(S(=O)(=O)N2CCCC2)c1`, the “growth rescue” value is reported as inactive: -1.95%.
With `COc1ccc(Cn2c(CCC(=O)Nc3ccc(Br)c(C)c3)nc3cccnc32)cc1` the Potency was inconclusive [activator, single point].
In the case of `CCOC(=O)c1ccccc1NC(=O)Cn1c(=O)n(CCC(=O)NCc2ccccc2OC)c(=O)c2ccccc21`, the “growth rescue” value is reported as inactive: -1.24%.
In the case of `COc1cc(C(=S)N2CCCC2)ccc1OCc1ccc(C)cc1`, the Potency is reported as inconclusive [activator, single point].
In the case of `CC(C)c1ccccc1NC(=S)NC(=O)C1CCCCC1`, the Potency is reported as inconclusive [activator, full curve, poor fit].
For `O=C(/C=C/c1ccccc1)NC(=S)NNC(=O)Cc1cccs1`, the Potency was inconclusive [activator, partial curve, poor fit].
In the case of `COc1ccccc1Cc1c(-c2ccc(OC)c(OC)c2)nc2ccc(C)cn12`, the “growth rescue” value is reported as inactive: 8.05%.
For `O=C(Cc1cccs1)Nc1nc(-c2ccc(F)cc2F)cs1`, the Potency was inconclusive [activator, full curve, poor fit].
For `O=C(Oc1cc(Cl)ccc1Cl)c1ccc(N2CCOCC2)c([N+](=O)[O-])c1`, the Potency was active: 5.62 µM.
For `NNC(=O)c1sc(-c2ccc(Cl)cc2)cc1N`, the Potency was inconclusive [activator, single point].
With `CN(C)c1ccc(CNC(=O)c2cnc3sc(N4CCCC4)nn3c2=O)cc1` the “growth rescue” value was inactive: -10.4%.
For `C=CCNC(=S)N/N=C/c1ccc(C)s1`, the Potency was inconclusive [activator, partial curve, poor fit].
For `Cc1ccc(CN(Cc2ccccn2)C(=O)Nc2ccc(C)c(C)c2)cc1`, the Potency was inconclusive [activator, single point].
With `O=C(NCCOCCO)C(=O)Nc1c2c(nn1-c1ccc(F)cc1)CSC2` the “growth rescue” value was inactive: 12.1%.
For `COc1ccc(-c2cc(-c3ccccc3)c(C#N)c(=S)[nH]2)cc1`, the Potency was inconclusive [activator, single point].
For `O=C(O)c1ccccc1Nc1ccccc1`, the “growth rescue” value was inactive: 0%.
For `CC(=O)c1cccc(-c2ccnc3c2CC(C(=O)Nc2cccc(OC(F)(F)F)c2)O3)c1` (stereo unspecified), the Potency was inconclusive [activator, single point].
In the case of `FC(F)(F)c1cccc(-n2cc(-c3ccccc3)[nH]c2=S)c1`, the Potency is reported as inconclusive [activator, partial curve].
With `Cc1ccc(S(=O)(=O)NCCc2sc3nc(-c4ccccc4)nn3c2C)cc1C` the Potency was inconclusive [activator, single point].
In the case of `O=C(c1ccc(Cl)c(Cl)c1)N1CCC(=O)N([C@H](COCc2ccc(Cl)cc2)Cc2ccccc2)CC1`, the Potency is reported as inconclusive [activator, partial curve, poor fit].
With `NNc1nc(-c2ccccc2)c2cc(Br)ccc2n1` the Potency was inconclusive [activator, partial curve, poor fit].
With `N#Cc1c(N)nc(SCc2ccccc2)c(C#N)c1-c1ccco1` the Potency was inconclusive [activator, single point].
In the case of `COc1ccc(-n2nc(C(=O)N3CCCCC3)c3ccccc3c2=O)cc1`, the Potency is reported as inconclusive [activator, single point].
In the case of `COc1cccc(N2CCN(c3c(C#N)c(C(F)(F)F)nn3C)CC2)c1`, the Potency is reported as inconclusive [activator, single point].
With `Cc1ccccc1CC1(CO)CCCN(C(=O)c2ccc(F)cc2)C1` (stereo unspecified) the Potency was inconclusive [activator, partial curve, poor fit].
With `COc1cc(NS(=O)(=O)c2cc(C(=O)NCCc3ccccn3)ccc2OC)cc(OC)c1` the Potency was inconclusive [activator, single point].
For `CC(C)N(C(=O)c1cc2c(Cl)nc3ccccc3c2s1)C1CCCCC1`, the “growth rescue” value was inactive: -0.0064%.
In the case of `Fc1ccc(COc2ccc(C(=S)N3CCCC3)cc2)cc1`, the Potency is reported as inconclusive [activator, single point].
For `CCOCCCNC(=O)Nc1cc(C(=O)NCc2ccc(C(C)C)cc2)ccc1N1CCCC1`, the “growth rescue” value was inactive: -0.327%.
In the case of `CCOC(=O)c1cn(CC)c2cc(Cl)c([N+](=O)[O-])cc2c1=O`, the “growth rescue” value is reported as inactive: 11.7%.
In the case of `CCOC(=O)c1ccc(S(=O)(=O)N2CCN(CC(=O)NC(=O)NC3CCCCC3)CC2)cc1`, the Potency is reported as inconclusive [activator, partial curve, poor fit].
For `CN1/C(=C/C2CC(=O)N(c3ccc([N+](=O)[O-])cc3)C2=O)C(C)(C)c2ccccc21` (stereo unspecified), the growth rescue was inconclusive: 36.1% [activator].
